# This is one part of the list. The full chains were built here from the parent and the listed change. Values near 0.05 are background.
# B1: TEV protease; numbered along this chain (parent)
# chain: MGESLFKGPRDYNPISSSICHLTNESDGHTTSLYGIGFGPFIITNKHLFRRNNGTLVVQSLHGVFKVKDTTTLQQHLVDGRDMIIIRMPKDFPPFPQKLKFREPQREERICLVTTNFQTKSMSSMVSDTSCTFPSGDGIFWKHWIQTKDGQCGSPLVSTRDGFIVGIHSASNFTNTNNYFTSVPKNFMELLTNQEAQQWVSGWRLNADSVLWGGHKVFMVKPEEPFQPVKEATQL
# Variants of: B1
# Test: raw area under fraction-flipped curve 0-4 h after induction (AUC4h, not background-subtracted), DNA-recorder readout of cleavage of the substrate (dimensionless); higher = more cleavage of the substrate by the protease variant
# Conditions: temperature: 34 °C; time window: 0-4 h after rhamnose induction
# Method: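 In vivo DNA recorder in E. coli TOP10(DE3) ΔrhaA at 34 °C. Each TEVp single-site mutant (parent TEVp 0) is paired with a single-site variant of the 7-mer TEVs (canonical ENLYFQ|S). The substrate sits between flexible linkers in a Bxb1-sfGFP-TEVs-SsrA fusion, so cleavage stabilises Bxb1 and speeds flipping of a recombination array, read by NGS. The value is the raw area under the fraction-flipped curve over 0-4 h after rhamnose induction (AUC4h), with ≥20 reads per time point. It is not background-subtracted; inactive controls average about 0.047.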
# 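Also: Bxb1 expression induced with 0.2% (w/v) L-rhamnose at OD600 near 0.5, cultures sampled hourly, flipped fraction per protease–substrate barcode pair counted by paired-end Illumina sequencing.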
Variant,area with substrate EALYFQS,area with substrate ECLYFQS,area with substrate EELYFQS,area with substrate EGLYFQS,area with substrate EILYFQS,area with substrate ELLYFQS,area with substrate EMLYFQS,area with substrate EPLYFQS,area with substrate EQLYFQS,area with substrate ESLYFQS,area with substrate EVLYFQS,area with substrate EWLYFQS,area with substrate EYLYFQS,area with substrate EDLYFQS,area with substrate EFLYFQS,area with substrate EHLYFQS,area with substrate EKLYFQS,area with substrate ERLYFQS,area with substrate ETLYFQS
S135D,0.116,0.0757,0.144,0.0843,0.0842,0.0995,0.126,0.106,0.111,0.0981,0.0917,0.0856,0.108,,,,,,
S135I,0.0629,0.0721,0.0738,0.0771,0.0512,,0.0686,,0.0641,0.0582,0.0711,,0.0638,0.128,0.0792,0.0693,0.05,0.0656,
G136P,0.0731,0.0621,0.0699,,0.0681,,0.0705,0.0721,0.0896,0.072,0.0571,,0.0665,,,0.0768,0.0746,,
I139Q,0.145,0.0645,0.123,0.0943,0.091,,,,0.134,0.11,,0.0931,,,,,,,
F140I,0.0599,0.0808,,,0.0655,0.0599,0.0785,0.056,0.0598,0.056,0.0653,,,0.0684,,,0.0655,0.0655,
F140M,0.0892,0.0844,,,0.0717,0.0759,,,,0.0733,,,0.0627,0.114,,,0.0667,0.061,0.0795
F140P,0.0496,0.0542,0.0611,0.057,0.06,0.0587,0.0764,0.0558,0.0638,0.0744,0.0698,0.0763,,0.0616,0.0577,0.0645,0.0711,0.0602,
W144L,0.1,0.108,0.112,,,,0.0888,,0.104,,,,0.0977,0.0894,,,0.0823,,0.104
W144Q,0.084,0.0906,0.102,,0.0862,0.0893,0.0808,,0.0894,0.0802,0.0791,0.0752,0.073,0.0916,,0.0941,,0.0629,
W144T,0.0916,0.115,,0.108,0.0697,,0.102,0.108,0.0982,0.0861,0.0732,0.14,,0.124,0.0866,0.1,,,0.105
I145C,0.135,0.137,,0.122,0.144,,0.15,0.14,,0.135,,,0.135,0.178,0.109,0.171,,0.129,
Q146N,0.116,0.111,,0.0995,0.097,0.118,,,0.14,0.119,0.0802,0.0882,,0.134,,,,0.109,0.101
T147Y,0.0757,0.0766,0.111,0.0461,0.0604,,0.0435,0.067,0.0658,0.0694,0.0596,,0.0786,0.0642,,0.0711,,,
K148M,0.122,0.109,0.163,,0.09,0.106,0.13,0.111,,0.122,0.096,,,0.148,0.123,0.118,0.0936,0.0931,
K148N,0.0893,0.0816,,0.0866,0.0879,0.0906,,0.0859,0.0885,0.0791,0.0807,0.0801,,0.095,,0.0799,0.0927,0.0741,0.0799
K148T,0.0635,0.0661,0.114,,0.0871,0.0855,0.158,0.0994,0.111,0.107,0.0784,,0.0868,0.119,,0.0864,0.105,,
D149Q,0.0988,0.146,,,0.075,0.0543,0.0894,0.0968,,0.0766,0.0765,0.0731,0.0805,0.109,,0.0809,,0.0871,
D149S,0.0935,0.0923,0.139,0.0659,,0.0839,,,,0.0869,0.0768,,,0.131,0.09,0.122,0.104,0.094,0.0955
G150F,0.0581,0.0497,0.0586,0.0639,0.054,,,,0.0576,0.0561,0.0449,,,,0.0502,,0.0643,0.0499,
G150L,0.0691,0.0528,0.0585,0.0901,0.0531,0.0664,0.049,0.0585,0.0717,0.0629,,,,0.0685,0.0557,0.0607,0.0435,0.0544,0.0618
Q151H,0.0047,0.0806,,0.0907,0.0618,,,0.0902,0.105,0.095,0.0817,0.0819,,0.0842,,,0.0962,,
Q151S,0.142,0.0852,0.151,,0.0998,0.0799,0.125,0.16,0.106,0.0869,0.0852,0.108,,0.123,0.134,0.134,,0.0978,
G153N,0.0547,0.0477,0.0567,,,0.0513,0.0538,0.0384,,0.0439,,,,0.0324,0.0855,0.0449,0.0467,,
G153Y,0.059,0.0326,0.047,,,,,,,0.0914,0.0626,,,0.0288,,,0.0527,0.0608,
P155E,0.0359,0.0515,,0.0612,0.048,,0.0575,0.0231,0.0425,0.0445,0.0751,0.0474,,0.0201,,0.0233,0.0332,0.0487,
P155F,0.0503,0.0585,,0.0597,0.0518,,,0.0661,0.0551,0.0591,0.0543,,,0.058,0.0777,,0.0375,,
P155M,0.0937,0.0622,0.0866,0.0588,0.0685,0.0601,0.0699,,0.0779,0.0815,0.0679,,0.0791,0.0731,,,,0.072,
L156K,0.0477,0.0493,0.0499,0.0521,0.0385,,,0.0382,,0.0586,0.0531,0.051,,0.0595,,0.0251,0.0579,,0.0594

# — the supplement of paper PMC12217912
